The antibiotic and cytotoxicity screens of Wong et al. (2023)
Some of the results follow.

Key:
[1] = system: HSkMC (human skeletal muscle cells); test: cytotoxicity call (relative viability < 0.9); details: 10 µM
[2] = system: HepG2; test: cytotoxicity call (relative viability < 0.9); details: 10 µM
[3] = system: S. aureus RN4220; test: growth inhibition call (relative growth <= 0.2); details: 50 µM

Row | Compound | cytotoxicity call [1] | cytotoxicity call [2] | growth inhibition call [3]
1 | C[C@@H]1CN([C@H](C)CO)C(=O)Cc2cc(NC(=O)Cn3cnnn3)ccc2O[C@H]1CN(C)C(=O)Nc1ccc2c(c1)OCO2 | inactive | inactive | inactive
2 | COc1ccc(NC(=O)N(C)C[C@@H]2OCCCC[C@@H](C)Oc3ccc(NC(=O)Nc4ccc(F)cc4)cc3C(=O)N([C@@H](C)CO)C[C@H]2C)cc1 | inactive | inactive | inactive
3 | C[C@H]1CCCCO[C@H](CN(C)C(=O)Nc2ccccc2)[C@@H](C)CN([C@@H](C)CO)C(=O)c2cc(NC(=O)c3ccccc3)ccc2O1 | inactive | inactive | inactive
4 | Cc1noc(C)c1NC(=O)Nc1ccc2c(c1)C(=O)N([C@H](C)CO)C[C@@H](C)[C@@H](CN(C)Cc1ccc3c(c1)OCO3)OCCCC[C@@H](C)O2 | inactive | inactive | inactive
5 | C[C@H](CO)N1C[C@H](C)[C@@H](CN(C)C(=O)C2CCCCC2)Oc2cc(C#C[C@@H](C)O)ccc2S1(=O)=O | inactive | inactive | inactive
6 | C[C@H](CO)N1C[C@H](C)[C@H](CN(C)CC2CCCCC2)Oc2c(NC(=O)c3ccc(-c4nccs4)cc3)cccc2C1=O | inactive | inactive | inactive
7 | COc1ccc(S(=O)(=O)Nc2ccc3c(c2)C(=O)N([C@H](C)CO)C[C@H](C)[C@H](CN(C)Cc2ccc4c(c2)OCO4)OCCCC[C@H](C)O3)cc1 | inactive | active | inactive
8 | COc1ccc(NC(=O)N(C)C[C@@H]2OCCCC[C@H](C)Oc3ccc(NS(=O)(=O)c4ccccc4)cc3C(=O)N([C@H](C)CO)C[C@@H]2C)cc1 | inactive | inactive | inactive
9 | C/C(=N\N)c1c(C)cc(C)[nH]c1=O | inactive | inactive | inactive
10 | O=c1[nH]nc(N2CCOCC2)c(=O)[nH]1 | inactive | inactive | inactive
11 | C[C@H]1CN([C@@H](C)CO)C(=O)c2cc(NC(=O)Cc3cn(C)c4ccccc34)ccc2O[C@@H]1CN(C)S(=O)(=O)c1cn(C)cn1 | inactive | inactive | inactive
12 | C[C@H]1CCCCO[C@H](CN(C)S(=O)(=O)c2ccc(Cl)cc2)[C@@H](C)CN([C@@H](C)CO)C(=O)c2cc(NS(=O)(=O)c3ccccc3)ccc2O1 | inactive | inactive | inactive
13 | COc1ccc(S(=O)(=O)Nc2cccc3c2O[C@H](CN(C)S(C)(=O)=O)[C@H](C)CN([C@@H](C)CO)C3=O)cc1 | inactive | inactive | inactive
14 | COCC(=O)Nc1ccc2c(c1)C(=O)N(C)C[C@@H](OC)[C@@H](C)CN(Cc1cccc(F)c1)[C@H](C)CO2 | inactive | inactive | inactive
15 | Cc1noc(C)c1NC(=O)Nc1ccc2c(c1)C(=O)N([C@H](C)CO)C[C@H](C)[C@H](CN(C)C(=O)NC(C)C)O2 | inactive | inactive | inactive
16 | C[C@@H]1CN([C@H](C)CO)C(=O)Cc2cc(NC(=O)Nc3ccc(C(F)(F)F)cc3)ccc2O[C@H]1CN(C)S(=O)(=O)c1ccc(Cl)cc1 | active | inactive | inactive
17 | CN(C)CCCNC(=O)C[C@H]1CC[C@@H]2[C@H](COc3ccc(NC(=O)c4ccccc4F)cc3C(=O)N2C)O1 | inactive | inactive | inactive
18 | C[C@@H]1CN([C@@H](C)CO)C(=O)c2cc(N(C)C)ccc2O[C@@H](C)CCCCO[C@H]1CN(C)Cc1ccc(C(F)(F)F)cc1 | inactive | inactive | inactive
19 | Cc1ccc(S(=O)(=O)Nc2ccc3c(c2)CC(=O)N([C@H](C)CO)C[C@H](C)[C@H](CN(C)Cc2ccc(Oc4ccccc4)cc2)O3)cc1 | inactive | inactive | inactive
20 | O=C(CCCCC(=O)N/N=C/[C@H](O)[C@@H](O)[C@H](O)[C@H](O)CO)NO | inactive | inactive | inactive
21 | COc1ccc(S(=O)(=O)Nc2ccc3c(c2)C(=O)N([C@H](C)CO)C[C@@H](C)[C@@H](CN(C)CC2CCCCC2)OCCCC[C@@H](C)O3)cc1 | inactive | active | inactive
22 | Cc1noc(C)c1S(=O)(=O)N(C)C[C@H]1Oc2c(NS(=O)(=O)c3cn(C)cn3)cccc2C(=O)N([C@@H](C)CO)C[C@@H]1C | inactive | inactive | inactive
23 | C[C@@H]1CCCCO[C@H](CN(C)Cc2ccccc2)[C@@H](C)CN([C@@H](C)CO)C(=O)c2cc(NC(=O)Nc3cccc4ccccc34)ccc2O1 | active | active | inactive
24 | C[C@H]1CN([C@@H](C)CO)C(=O)c2cc(/C=C/c3ccccc3)cnc2O[C@H]1CN(C)C(=O)CN1CCOCC1 | inactive | inactive | inactive
25 | CN(C)S(=O)(=O)N1CCO[C@@H]2CN(c3ncc(F)cn3)C[C@@H]21 | inactive | inactive | inactive

Row | Compound | cytotoxicity call [1] | cytotoxicity call [2] | growth inhibition call [3]
26 | C=CCOC(=O)[C@@H]1[C@H]2C(=O)O[C@H](c3ccccc3)[C@H](c3ccccc3)N2[C@H](c2ccc(OCCOC(=O)[C@H]3C[C@H]4C(=O)NCC(=O)N4[C@H]3c3cccc(OCCO)c3)cc2)[C@@]12C(=O)Nc1ccccc12 | inactive | inactive | inactive
27 | Cc1ccc(S(=O)(=O)Nc2ccc3c(c2)CC(=O)N([C@H](C)CO)C[C@H](C)[C@@H](CN(C)Cc2ccc(-c4ccccc4)cc2)O3)cc1 | inactive | active | inactive
28 | C[C@@H]1CN([C@H](C)CO)S(=O)(=O)c2ccc(-c3cccnc3)cc2O[C@@H]1CN(C)C(=O)NC1CCCCC1 | inactive | inactive | inactive
29 | C[C@@H]1CN([C@H](C)CO)C(=O)c2cccc(NC(=O)Nc3ccc4c(c3)OCO4)c2O[C@H]1CN(C)C(=O)Nc1cccc2ccccc12 | inactive | inactive | inactive
30 | Cl.[NaH] | inactive | inactive | inactive
31 | C[C@H](CO)N1C[C@H](C)[C@H](CN(C)C(=O)Nc2ccc(C(F)(F)F)cc2)Oc2ccc(NC(=O)CCC(F)(F)F)cc2CC1=O | inactive | inactive | inactive
32 | C[C@@H]1CCCCO[C@@H](CN(C)CC2CCCCC2)[C@H](C)CN([C@H](C)CO)C(=O)c2cc(NC(=O)Nc3ccc(F)cc3)ccc2O1 | inactive | active | inactive
33 | CC(C)NC(=O)Nc1ccc2c(c1)C(=O)N([C@@H](C)CO)C[C@@H](C)[C@H](CN(C)C(=O)C1CCCCC1)OCCCC[C@H](C)O2 | inactive | inactive | inactive
34 | CC(C)NC(=O)Nc1ccc2c(c1)CC(=O)N([C@@H](C)CO)C[C@@H](C)[C@@H](CN(C)Cc1ccc(-c3ccccc3)cc1)O2 | inactive | inactive | inactive
35 | C[C@H]1CN([C@@H](C)CO)S(=O)(=O)c2ccc(C#CC(C)(C)O)cc2O[C@@H]1CN(C)Cc1ccc(F)cc1 | inactive | inactive | inactive
36 | NCc1ccc(-n2cccc2)cc1 | inactive | inactive | inactive
37 | CC(C)NC(=O)N(C)C[C@H]1OCc2cnnn2CCCC(=O)N([C@H](C)CO)C[C@H]1C | inactive | inactive | inactive
38 | C[C@@H]1CCCn2nncc2COCCNC1=O | inactive | inactive | inactive
39 | CC1(CN)Cc2ccccc2C1 | inactive | inactive | inactive
40 | C[C@H](CO)N1C[C@H](C)[C@H](CN(C)Cc2ccc(C(=O)O)cc2)Oc2ccc(NC(=O)C3CC3)cc2C1=O | inactive | inactive | inactive
41 | C[C@@H]1CN([C@H](C)CO)C(=O)c2cc(NC(=O)Nc3ccc(C(F)(F)F)cc3)ccc2O[C@@H](C)CCCCO[C@H]1CN(C)Cc1ccc2c(c1)OCO2 | active | active | inactive
42 | C[C@H]1CN([C@@H](C)CO)C(=O)c2cc(NC(=O)Nc3ccc(C(F)(F)F)cc3)ccc2O[C@H]1CN(C)Cc1ccc(C(=O)O)cc1 | inactive | inactive | inactive
43 | CN1C(=O)c2cc(NS(=O)(=O)c3ccc(F)cc3)ccc2OC[C@H]2O[C@@H](CC(=O)NCC(F)(F)F)CC[C@@H]21 | inactive | inactive | inactive
44 | C[C@H](CO)N1C[C@H](C)[C@H](CN(C)S(=O)(=O)c2ccccc2)Oc2ccc(NC(=O)Cc3ccccc3)cc2C1=O | inactive | inactive | inactive
45 | Cc1noc(C)c1S(=O)(=O)Nc1ccc2c(c1)CC(=O)N([C@H](C)CO)C[C@@H](C)[C@@H](CN(C)Cc1ccc(-c3ccccc3)cc1)O2 | inactive | inactive | inactive
46 | O=C(C[C@@H]1CC[C@H]2[C@@H](COC[C@H](O)CN2S(=O)(=O)c2ccccc2)O1)N[C@H]1CCN(Cc2ccccc2)C1 | inactive | inactive | inactive
47 | C[C@@H]1CCCCO[C@@H](CN(C)Cc2ccncc2)[C@H](C)CN([C@H](C)CO)C(=O)c2cc(NC(=O)Nc3ccccc3)ccc2O1 | inactive | inactive | inactive
48 | CC1CC2C3CCC4=CC(=O)C=CC4(C)C3(F)C(O)CC2(C)C1C(=O)CO (configuration not stated) | inactive | inactive | inactive
49 | COC(=O)[C@H](Cc1ccccc1)N1CC2=C[C@@H](C3CC3)n3c(=O)n(C)c(=O)n3[C@H]2[C@@H]1[C@@H](O)CCn1cc(-c2cccc(/C=C/C(=O)NO)c2)nn1 | inactive | inactive | inactive
